Experimental data reported in PubChem BioAssay AID328 (DTP/NCI, 2004).
Toxic doses and inconclusive results are not listed. For part of its entries the source gives two or more results. This list holds those alone. An entry can have further records. The records of an entry are repeated measurements (runs, samples, wells, individuals or studies). A tag in brackets gives the origin of a value. Letters count within one entry. Starred links: 1 amine or outer side, 2 acyl side, 3 side chain; linkers in the order of their positions; H or OH if unused. Positions of bridges follow the written chain, without caps; N, C: chain ends. Non-standard residues stand in square brackets, D forms with d. Residues, ends and D or L forms follow the SMILES beside them. Chains are numbered I, II in the order given. Actinocin(9to1) = Cc1c2oc3c(C)ccc(C(=O)[*:1])c3nc-2c(C(=O)[*:2])c(N)c1=O; Pip(4-oxo) = O=C1CCN[CH](C(=O)O)C1; aThr = C[C@H](O)[C@H](N)C(=O)O; NMeV = CN[CH](C(=O)O)C(C)C; Sar = CNCC(=O)O

Test system: BDF1 mice, P388 leukemia ip, median survival T/C
Assay: NCI In Vivo Anticancer Drug Screen. Data for tumor model P388 Leukemia (intraperitoneal) in B6D2F1 (BDF1) mice
Conditions: endpoint: median survival time, higher = longer survival
Summary of the method: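 In tumour-bearing mice, survival after compound treatment is set against the vehicle group and given as a quotient.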

[1] = dose: 100.0 mg/kg/injection, schedule: Q04DX003 (ip), vehicle: Klucel (hydroxypropylcellulose) (HPC)

## CCCCCCC[CH2][Sn](=[O])[CH2]CCCCCCC
dose: 50.0 mg/kg/injection, schedule: Q04DX003 (ip), vehicle: Klucel (hydroxypropylcellulose) (HPC)
  T/C: 123 % of control and 150 % of control
dose: 75.0 mg/kg/injection, schedule: Q04DX003 (ip), vehicle: Klucel (hydroxypropylcellulose) (HPC)
  T/C: 123 % of control and 150 % of control

## COc1ccc(/C=C/C(=O)c2ccc3c(c2)OCO3)cc1OC
dose: 100.0 mg/kg/injection, schedule: Q01DX009 (ip), vehicle: saline with Tween-80
  T/C: 118 % of control and 163 % of control

## Nc1c(Br)cc2c(c1Br)Cc1cc(Cl)ccc1-2
[1]
  T/C: 87 % of control and 177 % of control

## Nc1nc(N)c2cc(CNc3ccc(C(=O)NC(CC(=O)O)C(=O)O)cc3)ccc2n1 (stereo not given)
dose: 12.5 mg/kg/injection, schedule: Q04DX003 (ip), vehicle: saline sonified
  T/C: 122 % of control and 192 % of control

## N=c1c2c(C(N)=O)cn(C3OC(CO)C(O)C3O)c2ncn1O (stereo not given)
dose: 3.0 mg/kg/injection, schedule: Q01DX009 (ip), vehicle: saline with Tween-80
  T/C: 107 % of control and 159 % of control

## NC(=S)N/N=C/c1ccc(N)cn1
dose: 12.5 mg/kg/injection, schedule: Q01DX009 (ip), vehicle: saline with Tween-80
  T/C: 100 % of control, 158 % of control, 181 % of control

## Cc1c2oc3c(C)ccc(C(=O)N[C@@H]4C(=O)N[C@H](C(C)C)C(=O)N5CCC[C@H]5C(=O)N(C)CC(=O)N(C)[C@@H](C(C)C)C(=O)O[C@H]4C)c3nc-2c(C(=O)N[C@@H]2C(=O)N[C@H](C(C)C)C(=O)N3CCC[C@H]3C(=O)N(C)CC(=O)N(C)[C@@H](C(C)C)C(=O)O[C@H]2C)c(N)c1=O (I: [aThr][dV]P[Sar][NMeV] / II: [aThr][dV]P[Sar][NMeV]; ester I:1-I:C, II:1-II:C; linker I:N-II:N via Actinocin(9to1))
dose: 450.0 micrograms/kg/injection, schedule: Q04DX003 (ip), vehicle: saline + alcohol
  T/C: 97 % of control, 115 % of control, 153 % of control

## CN(C)c1ccc2nc3ccc(=[N+](C)C)cc-3sc2c1
dose: 16.5 mg/kg/injection, schedule: Q04DX003 (ip), vehicle: saline
  T/C: 100 % of control, 104 % of control, 154 % of control

## CO[C@H](C(=O)[C@@H](O)[C@@H](C)O)[C@@H]1Cc2cc3cc(OC4CC(OC5CC(O)C(O)C(C)O5)C(O)C(C)O4)c(C)c(O)c3c(O)c2C(=O)[C@H]1OC1CC(OC2CC(OC3CC(C)(O)C(O)C(C)O3)C(O)C(C)O2)C(O)C(C)O1 (stereo not given in full)
dose: 0.38 mg/kg/injection, schedule: Q01DX010 (ip), vehicle: saline
  T/C: 110 % of control and 175 % of control
dose: 0.75 mg/kg/injection, schedule: Q01DX010 (ip), vehicle: saline
  T/C: 120 % of control and 165 % of control

## CC(C)(C)[O][Pb]([c]1ccccc1)([c]1ccccc1)[c]1ccccc1
dose: 1.56 mg/kg/injection, schedule: Q01DX009 (ip), vehicle: saline
  T/C: 109 % of control, 115 % of control, 155 % of control

## CN(C)c1ncnc2c1ncn2C1OC(CO)C(N)C1O (stereo not given)
dose: 33.0 mg/kg/injection, schedule: Q01DX009 (ip), vehicle: saline
  T/C: 100 % of control and 150 % of control

## Cc1cc2c(C(C)C)c(O)c(O)c(C=O)c2c(O)c1-c1c(C)cc2c(C(C)C)c(O)c(O)c(C=O)c2c1O
dose: 10.0 mg/kg/injection, schedule: Q01DX009 (ip), vehicle: saline with Tween-80
  T/C: 124 % of control and 150 % of control

## O=C1C(NC(=O)C2CCCCC2)=C(N2CC2)C(=O)C(NC(=O)C2CCCCC2)=C1N1CC1
dose: 100.0 mg/kg/injection, schedule: Q01DX010 (ip), vehicle: saline
  T/C: 109 % of control and 186 % of control
dose: 200.0 mg/kg/injection, schedule: Q01DX009 (ip), vehicle: Klucel (hydroxypropylcellulose) (HPC)
  T/C: 106 % of control and 155 % of control
dose: 400.0 mg/kg/injection, schedule: Q01DX009 (ip), vehicle: Klucel (hydroxypropylcellulose) (HPC)
  T/C: 101 % of control and 170 % of control

## Nc1ncnc2c1ccn2C1OC(CO)C(O)C1O (stereo not given)
dose: 1.0 mg/kg/injection, schedule: Q02DX005 (ip), vehicle: saline
  T/C: 108 % of control and 168 % of control
dose: 1.0 mg/kg/injection, schedule: Q#A X002 (ip), vehicle: saline
  T/C: 116 % of control and 166 % of control
dose: 3.5 mg/kg/injection, schedule: Q01DX001 (ip), vehicle: saline
  T/C: 109 % of control and 163 % of control
dose: 4.0 mg/kg/injection, schedule: Q01DX001 (ip), vehicle: saline
  T/C: 120 % of control and 166 % of control

## O=C1C=CC(=O)O1 (tested in a mixture with another compound)
dose: 25.0 mg/kg/injection, schedule: Q01DX009 (ip), vehicle: saline
  T/C: 115 % of control, 177 % of control [sample A] and 100 % of control [sample B]
dose: 100.0 mg/kg/injection, schedule: Q01DX009 (ip), vehicle: saline
  T/C: 110 % of control, 189 % of control [sample A] and 91 % of control, 115 % of control [sample B] and 94 % of control [sample C]
dose: 100.0 mg/kg/injection, schedule: Q04DX003 (ip), vehicle: saline
  T/C: 120 % of control, 121 % of control [sample A] and 100 % of control, 118 % of control [sample B] and 87 % of control [sample C] and 104 % of control [sample D]
dose: 200.0 mg/kg/injection, schedule: Q04DX003 (ip), vehicle: saline
  T/C: 102 % of control, 158 % of control [sample A] and 109 % of control, 116 % of control [sample B] and 91 % of control, 112 % of control [sample C] and 112 % of control [sample D]

## CS(=O)(=O)OCCNC[C@@H](O)[C@@H](O)CNCCOS(C)(=O)=O
dose: 50.0 mg/kg/injection, schedule: Q04DX003 (ip), vehicle: saline
  T/C: 113 % of control and 186 % of control

## O=S(O)OS(=O)O
dose: 300.0 mg/kg/injection, schedule: Q01DX009 (ip), vehicle: saline
  T/C: 95 % of control and 150 % of control

## CCN(CCNc1ccc(C)c2sc3ccccc3c(=O)c12)CC(C)(C)O
dose: 150.0 mg/kg/injection, schedule: Q01DX009 (ip), vehicle: saline
  T/C: 109 % of control, 181 % of control, 185 % of control
dose: 300.0 mg/kg/injection, schedule: Q04DX003 (ip), vehicle: saline
  T/C: 86 % of control and 190 % of control

## CC1=CC2C(O)(CC(CO)=CC3C4C(C)(C)C4(OC(=O)c4ccccc4)C(OC(=O)c4ccccc4)C(C)C32O)C1=O (stereo not given)
dose: 50.0 micrograms/kg/injection, schedule: Q01DX009 (ip), vehicle: saline with Tween-80
  T/C: 98 % of control and 161 % of control
dose: 400.0 micrograms/kg/injection, schedule: Q01DX009 (ip), vehicle: saline with Tween-80
  T/C: 121 % of control and 150 % of control

## CC(=O)Nc1ccc(NC(=O)c2ccc([As](O)O)cc2)cc1
dose: 66.0 mg/kg/injection, schedule: Q04DX003 (ip), vehicle: Klucel (hydroxypropylcellulose) (HPC)
  T/C: 120 % of control and 155 % of control
[1]
  T/C: 120 % of control and 161 % of control
dose: 150.0 mg/kg/injection, schedule: Q04DX003 (ip), vehicle: Klucel (hydroxypropylcellulose) (HPC)
  T/C: 120 % of control and 150 % of control

## COC(=O)[C@@]12OC[C@]34[C@H]([C@@H](O)[C@@H]1O)[C@@]1(C)CC(=O)C(O)=C(C)[C@@H]1C[C@H]3OC(=O)[C@H](OC(=O)/C=C(\C)C(C)C)[C@@H]24
dose: 1.6 mg/kg/injection, schedule: Q01DX005 (iv), vehicle: saline + alcohol
  T/C: 120 % of control and 160 % of control

## CCNC(=NC)c1ccc(NC(=O)c2ccc(C(=O)Nc3ccc(C(=NC)NCC)cc3)cc2)cc1
dose: 6.0 mg/kg/injection, schedule: Q01DX009 (ip), vehicle: saline with Tween-80
  T/C: 100 % of control and 200 % of control

## NC(N)=N/N=C(/c1ccccc1)c1ccc(F)cc1
dose: 20.0 mg/kg/injection, schedule: Q01DX009 (ip), vehicle: Klucel (hydroxypropylcellulose) (HPC)
  T/C: 118 % of control and 150 % of control

## COc1cc2cc3c4ccccc4cc[n+]3c(C)c2cc1OC (tested in a mixture with another compound)
dose: 40.0 mg/kg/injection, schedule: Q04DX003 (ip), vehicle: saline
  T/C: 122 % of control and 157 % of control

## CC(C)C1NC(=O)C(N)C(C)OC(=O)C(C(C)C)N(C)C(=O)CN(C)C(=O)C2CC(=O)CCN2C1=O (stereo not given) (tested in a mixture with another compound) (H-TV[Pip(4-oxo)][Sar][NMeV]; ester 1-C; configuration not given here)
dose: 225.0 micrograms/kg/injection, schedule: Q04DX003 (ip), vehicle: saline + alcohol
  T/C: 108 % of control and 188 % of control
dose: 300.0 micrograms/kg/injection, schedule: Q04DX003 (ip), vehicle: saline + alcohol
  T/C: 123 % of control and 197 % of control
dose: 600.0 micrograms/kg/injection, schedule: Q04DX003 (ip), vehicle: saline + alcohol
  T/C: 104 % of control and 159 % of control

## CC1CN1CC(O)C(O)CN1CC1C (stereo not given)
dose: 0.39 mg/kg/injection, schedule: Q04DX003 (ip), vehicle: saline
  T/C: 103 % of control and 154 % of control

## C=C1C(=O)O[C@H]2C1[C@H](OC(=O)/C(C)=C\COC(C)=O)C[C@]1(CO1)[C@@H]1[C@H](O)[C@H]3O[C@@]3(C)[C@@H]12 (stereo not given in full)
dose: 25.0 mg/kg/injection, schedule: Q01DX009 (ip), vehicle: other
  T/C: 115 % of control and 161 % of control

## C(CCC1CO1)CC1CO1 (stereo not given)
dose: 100.0 mg/kg/injection, schedule: Q04DX002 (ip), vehicle: saline with Tween-80
  T/C: 117 % of control and 153 % of control

## CNC(=O)c1ccc(NC(=O)Nc2cccc(C3=NCCN3)c2)cc1NC(=O)Nc1cccc(C2=NCCN2)c1
dose: 20.0 mg/kg/injection, schedule: Q01DX009 (ip), vehicle: saline with Tween-80
  T/C: 116 % of control and 154 % of control
